Experimental data from the supplement of paper PMC8728848.
This is one part of the list.

How the values were obtained:
Assay in all cases: glycan array binding signal (z-score within array); higher = stronger binding
Settings in all cases: glycan notation: IUPAC condensed, linker removed
Gal(a1-3)Gal(b1-3)GlcNAc = target: Gal(a1-3)Gal(b1-3)GlcNAc
Method in brief: (§1)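 Columns mapping to the same glycan were averaged after glycan names were converted to IUPAC-condensed notation. The data come from 3228 arrays in the Consortium for Functional Glycomics database, limited to those with an available protein sequence. Binding is reported as a within-array Z-score averaged across arrays of one protein sequence and across linkers.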

[1] = target: Gal(a1-3)Gal(b1-3)GlcNAc(b1-2)Man
Method in brief: as §1

[2] = target: Gal(a1-3)Gal(b1-3)GlcNAc(b1-2)Man(a1-3)[Gal(a1-3)Gal(b1-3)GlcNAc(b1-2)Man(a1-6)]Man(b1-4)GlcNAc(b1-4)GlcNAc
Method in brief: as §1

[3] = target: Gal(a1-3)Gal(b1-3)GlcNAc(b1-3)GalNAc
Method in brief: as §1

[4] = target: Gal(a1-3)Gal(b1-3)GlcNAc(b1-6)GalNAc
Method in brief: as §1

[5] = target: Gal(a1-3)Gal(b1-3)[Fuc(a1-4)]GlcNAc(b1-2)Man(a1-3)[Gal(a1-3)Gal(b1-3)[Fuc(a1-4)]GlcNAc(b1-2)Man(a1-6)]Man(b1-4)GlcNAc(b1-4)GlcNAc
Method in brief: as §1

Gal(a1-3)Gal(b1-4)Glc = target: Gal(a1-3)Gal(b1-4)Glc
Method in brief: as §1

Gal(a1-3)Gal(b1-4)GlcNAc = target: Gal(a1-3)Gal(b1-4)GlcNAc
Method in brief: as §1

[6] = target: Gal(a1-3)Gal(b1-4)GlcNAc(b1-2)Man
Method in brief: as §1

[7] = target: Gal(a1-3)Gal(b1-4)GlcNAc(b1-2)Man(a1-3)[Gal(a1-3)Gal(b1-4)GlcNAc(b1-2)Man(a1-6)]Man(b1-4)GlcNAc(b1-4)GlcNAc
Method in brief: as §1

[8] = target: Gal(a1-3)Gal(b1-4)GlcNAc(b1-3)GalNAc
Method in brief: as §1

[9] = target: Gal(a1-3)Gal(b1-4)GlcNAc(b1-6)GalNAc
Method in brief: as §1

[10] = target: Gal(a1-3)Gal(b1-4)[Fuc(a1-3)]GlcNAc
Method in brief: as §1

[11] = target: Gal(a1-3)Gal(b1-4)[Fuc(a1-3)]GlcNAc(b1-2)Man(a1-3)[Gal(a1-3)Gal(b1-4)[Fuc(a1-3)]GlcNAc(b1-2)Man(a1-6)]Man(b1-4)GlcNAc(b1-4)GlcNAc
Method in brief: as §1

Gal(a1-3)GalNAc = target: Gal(a1-3)GalNAc
Method in brief: as §1

[12] = target: Gal(a1-3)[Gal(a1-4)]Gal(b1-4)GlcNAc
Method in brief: as §1

[13] = target: Gal(a1-4)Gal(b1-3)GlcNAc(b1-2)Man(a1-3)[Gal(a1-4)Gal(b1-3)GlcNAc(b1-2)Man(a1-6)]Man(b1-4)GlcNAc(b1-4)GlcNAc
Method in brief: as §1

Gal(a1-4)Gal(b1-4)Glc = target: Gal(a1-4)Gal(b1-4)Glc
Method in brief: as §1

Gal(a1-4)Gal(b1-4)GlcNAc = target: Gal(a1-4)Gal(b1-4)GlcNAc
Method in brief: as §1

[14] = target: Gal(a1-4)Gal(b1-4)GlcNAc(b1-2)Man(a1-3)[Gal(a1-4)Gal(b1-4)GlcNAc(b1-2)Man(a1-6)]Man(b1-4)GlcNAc(b1-4)GlcNAc
Method in brief: as §1

[15] = target: Gal(a1-4)Gal(b1-4)GlcNAc(b1-3)Gal(b1-4)Glc
Method in brief: as §1

Gal(a1-4)GlcNAc = target: Gal(a1-4)GlcNAc
Method in brief: as §1

Gal(a1-6)Glc = target: Gal(a1-6)Glc
Method in brief: as §1

Gal(b1-2)Gal = target: Gal(b1-2)Gal
Method in brief: as §1

Gal(b1-3)Gal = target: Gal(b1-3)Gal
Method in brief: as §1

Gal(b1-3)Gal(b1-4)GlcNAc = target: Gal(b1-3)Gal(b1-4)GlcNAc
Method in brief: as §1

Gal(b1-3)GalNAc = target: Gal(b1-3)GalNAc
Method in brief: as §1

[16] = target: Gal(b1-3)GalNAc(a1-3)[Fuc(a1-2)]Gal(b1-4)Glc
Method in brief: as §1

[17] = target: Gal(b1-3)GalNAc(a1-3)[Fuc(a1-2)]Gal(b1-4)GlcNAc
Method in brief: as §1

Gal(b1-3)GalNAc(b1-3)Gal = target: Gal(b1-3)GalNAc(b1-3)Gal
Method in brief: as §1

[18] = target: Gal(b1-3)GalNAc(b1-3)Gal(a1-4)Gal(b1-4)Glc
Method in brief: as §1

[19] = target: Gal(b1-3)GalNAc(b1-4)Gal(b1-4)Glc
Method in brief: as §1

[20] = target: Gal(b1-3)GalNAc(b1-4)[Neu5Ac(a2-3)]Gal(b1-4)Glc
Method in brief: as §1

Gal(b1-3)GlcNAc = target: Gal(b1-3)GlcNAc
Method in brief: as §1

[21] = target: Gal(b1-3)GlcNAc(a1-3)Gal(b1-4)GlcNAc
Method in brief: as §1

[22] = target: Gal(b1-3)GlcNAc(a1-6)Gal(b1-4)GlcNAc
Method in brief: as §1

Gal(b1-3)GlcNAc(b1-2)Man = target: Gal(b1-3)GlcNAc(b1-2)Man
Method in brief: as §1

[23] = target: Gal(b1-3)GlcNAc(b1-2)Man(a1-3)[Gal(b1-3)GlcNAc(b1-2)Man(a1-6)]Man(b1-4)GlcNAc(b1-4)GlcNAc
Method in brief: as §1

B1: Nc3LysM (protein)
chain: QFTVPPDTTAEPNTIKTCTWWHVAGSGDSCTSIASTYGITSEQFARWDMETTDSPKNPSVATACKLTVGNSYCIENNFGQDDPPTPSISSSTLIGTATTSTTASTTTGNGISTPTPIQEGMETATTTTSSGNGITTPTPTQAGMETVGNCDRFHLVKSGDQCGTIASTYGITLANFYSWNPAVGTSCQSLWLDTYVCVRTIGFVPPKTTTTTTKKPTSTTSAGGVATPTPTQPGMETVSGCKKFHKGRGNVSTVASGDQCGTIATRYGISLANFYSWNPAVGSSCQTLWLDYYVCVGR
glycan array binding signal (z-score) (Gal(a1-3)Gal(b1-3)GlcNAc): -0.232
glycan array binding signal (z-score) [1]: -0.203
glycan array binding signal (z-score) [2]: 0.295
glycan array binding signal (z-score) [3]: -0.04
glycan array binding signal (z-score) [4]: -0.073
glycan array binding signal (z-score) [5]: 0.161
glycan array binding signal (z-score) (Gal(a1-3)Gal(b1-4)Glc): -0.179
glycan array binding signal (z-score) (Gal(a1-3)Gal(b1-4)GlcNAc): 0.019
glycan array binding signal (z-score) [6]: -0.207
glycan array binding signal (z-score) [7]: -0.179
glycan array binding signal (z-score) [8]: 0.188
glycan array binding signal (z-score) [9]: -0.131
glycan array binding signal (z-score) [10]: -0.186
glycan array binding signal (z-score) [11]: 0.012
glycan array binding signal (z-score) (Gal(a1-3)GalNAc): -0.107
glycan array binding signal (z-score) [12]: 0.014
glycan array binding signal (z-score) [13]: -0.078
glycan array binding signal (z-score) (Gal(a1-4)Gal(b1-4)Glc): 0.092
glycan array binding signal (z-score) (Gal(a1-4)Gal(b1-4)GlcNAc): 0.007
glycan array binding signal (z-score) [14]: 0.082
glycan array binding signal (z-score) [15]: -0.212
glycan array binding signal (z-score) (Gal(a1-4)GlcNAc): -0.057
glycan array binding signal (z-score) (Gal(a1-6)Glc): -0.157
glycan array binding signal (z-score) (Gal(b1-2)Gal): -0.015
glycan array binding signal (z-score) (Gal(b1-3)Gal): 0.075
glycan array binding signal (z-score) (Gal(b1-3)Gal(b1-4)GlcNAc): -0.051
glycan array binding signal (z-score) (Gal(b1-3)GalNAc): -0.04
glycan array binding signal (z-score) [16]: 0.003
glycan array binding signal (z-score) [17]: -0.057
glycan array binding signal (z-score) (Gal(b1-3)GalNAc(b1-3)Gal): -0.026
glycan array binding signal (z-score) [18]: -0.214
glycan array binding signal (z-score) [19]: -0.079
glycan array binding signal (z-score) [20]: -0.212
glycan array binding signal (z-score) (Gal(b1-3)GlcNAc): -0.035
glycan array binding signal (z-score) [21]: -0.15
glycan array binding signal (z-score) [22]: -0.041
glycan array binding signal (z-score) (Gal(b1-3)GlcNAc(b1-2)Man): -0.189
glycan array binding signal (z-score) [23]: 0.063
